This is one part of the list. Repeats are few or missing, and single values can be far off.
Experiments:
Experiment in all cases: cell count relative to DMSO control; melanoma cells; higher = more viable cells
Settings in all cases: library dose: low library concentration; 72 h
MZ2-MEL = tested on: MZ2-MEL
MeWo = tested on: MeWo
RPMI7951 = tested on: RPMI7951
RVH-421 = tested on: RVH-421
SkMel28 = tested on: SkMel28
SkMel2 = tested on: SkMel2
SkMel30 = tested on: SkMel30
SkMel5 = tested on: SkMel5
UACC257 = tested on: UACC257
UACC62 = tested on: UACC62
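Note: cell number obtained by counting DAPI-stained nuclei in high-throughput microscope images with image analysis software, screen run in 1,536-well plates.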

Compound | cell count (MZ2-MEL) [%] | cell count (MeWo) [%] | cell count (RPMI7951) [%] | cell count (RVH-421) [%] | cell count (SkMel28) [%] | cell count (SkMel2) [%] | cell count (SkMel30) [%] | cell count (SkMel5) [%] | cell count (UACC257) [%] | cell count (UACC62) [%]
COc1cc([C@@H]2c3cc4c(cc3[C@@H](O[C@@H]3O[C@@H]5CO[C@@H](C)O[C@H]5[C@H](O)[C@H]3O)[C@H]3COC(=O)[C@H]23)OCO4)cc(OC)c1O [etoposide] + Cc1ccc(NC(=O)c2cccc(N(C)C)c2)cc1NC(=O)c1ccc(O)cc1 [ZM336372] (first compound 0.02 µM, partner dose 2 µM) | 72.6 | 97.1 | 87.1 | 92.8 | 97.5 | 96.5 | 96.2 | 103 | 103 | 85.1
COc1cc([C@@H]2c3cc4c(cc3[C@@H](O[C@@H]3O[C@@H]5CO[C@@H](C)O[C@H]5[C@H](O)[C@H]3O)[C@H]3COC(=O)[C@H]23)OCO4)cc(OC)c1O [etoposide] + C[C@@H]1CCN(C(=O)CC#N)C[C@@H]1N(C)c1ncnc2[nH]ccc12 [CP690550] (first compound 0.02 µM, partner dose 1 µM) | 103 | 99.6 | 124 | 99.4 | 102 | 90.4 | 108 | 104 | 91.3 | 99.7
C[C@]1(O)C[C@@H](c2nc(-c3ccc4ccc(-c5ccccc5)nc4c3)c3c(N)nccn32)C1 + O=c1cc(-c2cccc3c2Sc2ccccc2S3)oc(N2CCOCC2)c1 [KU55933] (first compound 0.4 µM, partner dose 1 µM) | 95 | 94.1 | 87.5 | 106 | 82.8 | 99.5 | 105 | 88.3 | 73.6 | 106
COc1cc([C@@H]2c3cc4c(cc3[C@@H](O[C@@H]3O[C@@H]5CO[C@@H](C)O[C@H]5[C@H](O)[C@H]3O)[C@H]3COC(=O)[C@H]23)OCO4)cc(OC)c1O [etoposide] + CC(C)(C)c1cnc(CSc2cnc(NC(=O)C3CCNCC3)s2)o1 [SNS-032] (first compound 0.02 µM, partner dose 0.01 µM) | 92.7 | 102 | 93.3 | 98.5 | 87.9 | 92.2 | 102 | 85.7 | 70.9 | 78
C[C@]1(O)C[C@@H](c2nc(-c3ccc4ccc(-c5ccccc5)nc4c3)c3c(N)nccn32)C1 + CC1(C)NC(=O)N(c2ccc([N+](=O)[O-])c(C(F)(F)F)c2)C1=O [nilutamide] (first compound 0.4 µM, partner dose 1 µM) | 99.4 | 99.1 | 99.4 | 81.8 | 96.3 | 86.5 | 146 | 100 | 92.5 | 102
COc1cc([C@@H]2c3cc4c(cc3[C@@H](O[C@@H]3O[C@@H]5CO[C@@H](C)O[C@H]5[C@H](O)[C@H]3O)[C@H]3COC(=O)[C@H]23)OCO4)cc(OC)c1O [etoposide] + O=C1NC(=O)/C(=C/c2ccc(-c3ccc(F)cc3O)o2)S1 [AS252424] (first compound 0.02 µM, partner dose 1 µM) | 104 | 78.9 | 117 | 110 | 81.2 | 104 | 93.4 | 98.6 | 82.2 | 86.7
COc1cc([C@@H]2c3cc4c(cc3[C@@H](O[C@@H]3O[C@@H]5CO[C@@H](C)O[C@H]5[C@H](O)[C@H]3O)[C@H]3COC(=O)[C@H]23)OCO4)cc(OC)c1O [etoposide] + Nc1ncn([C@H]2C[C@H](O)[C@@H](CO)O2)c(=O)n1 [decitabine] (first compound 0.02 µM, partner dose 0.1 µM) | 84.5 | 100 | 95.8 | 83.9 | 102 | 87.8 | 109 | – | – | 75.2
CCN(CC)CCNC(=O)c1c(C)[nH]c(/C=C2\C(=O)Nc3ccc(F)cc32)c1C [sunitinib] + N#Cc1c(O)c2c(-c3ccc(-c4ccccc4O)cc3)csc2[nH]c1=O [A769662] (first compound 0.4 µM, partner dose 2 µM) | 104 | 75.1 | 113 | 118 | 91.9 | 116 | 104 | 93.6 | 87 | 97.8
C[C@]1(O)C[C@@H](c2nc(-c3ccc4ccc(-c5ccccc5)nc4c3)c3c(N)nccn32)C1 + COC(=O)c1sccc1S(=O)(=O)Nc1ccc(Nc2ccccc2)cc1OC [GSK0660] (first compound 0.4 µM, partner dose 1 µM) | 99.7 | 107 | 99.8 | 93.1 | 90.5 | 75.5 | 81.5 | 84.7 | 97.8 | 94.3
COc1cc([C@@H]2c3cc4c(cc3[C@@H](O[C@@H]3O[C@@H]5CO[C@@H](C)O[C@H]5[C@H](O)[C@H]3O)[C@H]3COC(=O)[C@H]23)OCO4)cc(OC)c1O [etoposide] + C[C@@H](N)c1ccc(C(=O)Nc2ccnc3[nH]ccc23)cc1 [RKI983] (first compound 0.02 µM, partner dose 0.4 µM) | 78.8 | 86.7 | 76.7 | 58.9 | 64.9 | 94 | 90.4 | – | – | 77.4
CCN(CC)CCNC(=O)c1c(C)[nH]c(/C=C2\C(=O)Nc3ccc(F)cc32)c1C [sunitinib] + C=CCNC1=C2C[C@@H](C)C[C@H](OC)[C@H](O)[C@@H](C)/C=C(\C)[C@H](OC(N)=O)[C@@H](OC)/C=C\C=C(/C)C(=O)NC(=CC1=O)C2=O [Tanespimycin] (first compound 0.4 µM, partner dose 0.002 µM) | 121 | 69.9 | 91.8 | 115 | 107 | 110 | 67.8 | – | – | 87.7

From the supplement of paper PMC4604168 (melanoma cell lines)
